Test results: PMC10772735, “Characterization of erythroferrone oligomerization and its impact on BMP antagonism” (The Journal of Biological Chemistry, 2023)
Results are given in words; binding and its absence hold for the method and conditions named. Some binding calls cover weakened binding; strength is not graded here. For some of these results: Where a sequence is shown, tags or fusion partners need not be part of it.

Protein sequences, listed by entry. Tags and fused reporters are not part of them. Residues count along the entry.
UniProt P36894, residues 24-152: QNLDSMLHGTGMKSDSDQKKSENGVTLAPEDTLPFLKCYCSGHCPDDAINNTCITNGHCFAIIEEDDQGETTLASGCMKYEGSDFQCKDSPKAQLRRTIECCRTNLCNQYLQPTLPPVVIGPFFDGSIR

T1: BMP6 (UniProt P22004 375-513)
T1 sequence (looked up): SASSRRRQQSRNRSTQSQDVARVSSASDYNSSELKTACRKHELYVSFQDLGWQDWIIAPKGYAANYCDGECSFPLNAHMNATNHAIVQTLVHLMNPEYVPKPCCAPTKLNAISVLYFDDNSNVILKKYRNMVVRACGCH


What was measured:
[1] = target: Recombinant ALK3-Fc fusion protein (UniProt P36894); test: SPR; BIAcore T-200; 0.45 μg/ml Alk3-Fc captured on a protein A chip (85 response units); 10 nM constant BMP6 with ERFE 160 to 5 nM flowed over at 50 μl/min, 300 s association, 900 s dissociation; controls BMP6 alone and ERFE alone at 160 nM; 20 mM Hepes pH 7.4, 350 mM NaCl, 0.005% Tween-20, 0.5 mg/ml BSA, 5 mM EDTA; both purified
[2] = target: T1, BMP6; test: as above
[3] = target: Cys∗ΔC1Q ERFE (human) (UniProt Q4G0M1); test: condition: only in SDS (non-reducing SDS-PAGE, shows only disulfide-linked species); non-reducing SDS-PAGE; purified ERFE analysed by SDS-PAGE under reducing and nonreducing conditions; shows only disulfide-linked species; both purified

Binder	binding [1]	binding [2]	binding [3]
N-terminally flag-tagged hERFE (residues 44–354), WT erythroferrone (natural protein, human, UniProt Q4G0M1 44-354, looked up, erythroferrone (ERFE, FAM132B), human, residues 44-354; By AUC a mixture of trimer, hexamer and a little high molecular weight species; also called WT ERFE; N-Flag ERFE; not shown: FLAG, N-terminal, kept) PPPGNELPRGPGESRAGPAARPPEPTAERAHSVDPRDAWMLFVRQSDKGVNGKKRSRGKAKKLKFGLPGPPGPPGPQGPPGPIIPPEALLKEFQLLLKGAVRQRERAEPEPCTCGPAGPVAASLAPVSATAGEDDDDVVGDVLALLAAPLAPGPRAPRVEAAFLCRLRRDALVERRALHELGVYYLPDAEGAFRRGPGLNLTSGQYRAPVAGFYALAATLHVALGEPPRRGPPRPRDHLRLLICIQSRCQRNASLEAIMGLESSSELFTISVNGVLYLQMGQWTSVFLDNASGCSLTVRSGSHFSAVLLGV	no binding (tested: 160 nM)	binds	
F85A ERFE (protein, UniProt Q4G0M1 44-354) PPPGNELPRGPGESRAGPAARPPEPTAERAHSVDPRDAWMLAVRQSDKGVNGKKRSRGKAKKLKFGLPGPPGPPGPQGPPGPIIPPEALLKEFQLLLKGAVRQRERAEPEPCTCGPAGPVAASLAPVSATAGEDDDDVVGDVLALLAAPLAPGPRAPRVEAAFLCRLRRDALVERRALHELGVYYLPDAEGAFRRGPGLNLTSGQYRAPVAGFYALAATLHVALGEPPRRGPPRPRDHLRLLICIQSRCQRNASLEAIMGLESSSELFTISVNGVLYLQMGQWTSVFLDNASGCSLTVRSGSHFSAVLLGV		binds weakly	
D90A ERFE (natural protein, human, UniProt Q4G0M1 44-354, looked up) PPPGNELPRGPGESRAGPAARPPEPTAERAHSVDPRDAWMLFVRQSAKGVNGKKRSRGKAKKLKFGLPGPPGPPGPQGPPGPIIPPEALLKEFQLLLKGAVRQRERAEPEPCTCGPAGPVAASLAPVSATAGEDDDDVVGDVLALLAAPLAPGPRAPRVEAAFLCRLRRDALVERRALHELGVYYLPDAEGAFRRGPGLNLTSGQYRAPVAGFYALAATLHVALGEPPRRGPPRPRDHLRLLICIQSRCQRNASLEAIMGLESSSELFTISVNGVLYLQMGQWTSVFLDNASGCSLTVRSGSHFSAVLLGV		binds	

The next lines start with the values.

binding [1]	binding [2]	binding [3]	Binder
	binds weakly		W82A ERFE (protein, UniProt Q4G0M1 44-354) PPPGNELPRGPGESRAGPAARPPEPTAERAHSVDPRDAAMLFVRQSDKGVNGKKRSRGKAKKLKFGLPGPPGPPGPQGPPGPIIPPEALLKEFQLLLKGAVRQRERAEPEPCTCGPAGPVAASLAPVSATAGEDDDDVVGDVLALLAAPLAPGPRAPRVEAAFLCRLRRDALVERRALHELGVYYLPDAEGAFRRGPGLNLTSGQYRAPVAGFYALAATLHVALGEPPRRGPPRPRDHLRLLICIQSRCQRNASLEAIMGLESSSELFTISVNGVLYLQMGQWTSVFLDNASGCSLTVRSGSHFSAVLLGV
	binds		N94A ERFE (natural protein, human, UniProt Q4G0M1 44-354, looked up) PPPGNELPRGPGESRAGPAARPPEPTAERAHSVDPRDAWMLFVRQSDKGVAGKKRSRGKAKKLKFGLPGPPGPPGPQGPPGPIIPPEALLKEFQLLLKGAVRQRERAEPEPCTCGPAGPVAASLAPVSATAGEDDDDVVGDVLALLAAPLAPGPRAPRVEAAFLCRLRRDALVERRALHELGVYYLPDAEGAFRRGPGLNLTSGQYRAPVAGFYALAATLHVALGEPPRRGPPRPRDHLRLLICIQSRCQRNASLEAIMGLESSSELFTISVNGVLYLQMGQWTSVFLDNASGCSLTVRSGSHFSAVLLGV
		no binding	Cys∗ΔC1Q ERFE (domain or fragment, human, UniProt Q4G0M1 44-207, looked up, erythroferrone (ERFE), human, stop codon at C208, Cys155 and Cys157 mutated to serines (C208 is not in the truncated chain); source: Expi293, transfected, purified; not shown: FLAG, N-terminal, kept) PPPGNELPRGPGESRAGPAARPPEPTAERAHSVDPRDAWMLFVRQSDKGVNGKKRSRGKAKKLKFGLPGPPGPPGPQGPPGPIIPPEALLKEFQLLLKGAVRQRERAEPEPSTSGPAGPVAASLAPVSATAGEDDDDVVGDVLALLAAPLAPGPRAPRVEAAFL
